Results: paper PMC8095187
Where a chain is given by its changes, count along the chain named. Results are given in words; binding and its absence hold for the method and conditions named. In cells and extracts the contact can be indirect. Some results given as binding are weak or reduced against the parent protein; the word gives no strength. Sequences can lack the tags named with a protein.

Sequences of proteins named here, by UniProt entry; tags and fusion partners are left off. A change or cut given only in a name is not applied to a line headed by its entry.
UniProt Q8BRK8: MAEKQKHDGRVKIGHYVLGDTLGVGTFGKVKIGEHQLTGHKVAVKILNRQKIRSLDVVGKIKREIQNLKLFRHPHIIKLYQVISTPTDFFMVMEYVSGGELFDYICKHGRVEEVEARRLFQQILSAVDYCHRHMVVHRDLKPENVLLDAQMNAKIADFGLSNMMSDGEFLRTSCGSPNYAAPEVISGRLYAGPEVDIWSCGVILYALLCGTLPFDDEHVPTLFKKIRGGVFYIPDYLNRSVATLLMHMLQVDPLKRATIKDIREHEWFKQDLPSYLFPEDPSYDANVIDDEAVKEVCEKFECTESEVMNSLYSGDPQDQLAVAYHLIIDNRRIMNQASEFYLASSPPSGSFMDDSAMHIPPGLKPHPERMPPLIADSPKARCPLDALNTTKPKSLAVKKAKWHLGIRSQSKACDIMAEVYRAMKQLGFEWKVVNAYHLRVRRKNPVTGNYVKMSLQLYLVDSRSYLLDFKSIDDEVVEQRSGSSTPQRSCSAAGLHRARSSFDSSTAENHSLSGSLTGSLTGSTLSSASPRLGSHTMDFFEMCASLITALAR
UniProt Q63610: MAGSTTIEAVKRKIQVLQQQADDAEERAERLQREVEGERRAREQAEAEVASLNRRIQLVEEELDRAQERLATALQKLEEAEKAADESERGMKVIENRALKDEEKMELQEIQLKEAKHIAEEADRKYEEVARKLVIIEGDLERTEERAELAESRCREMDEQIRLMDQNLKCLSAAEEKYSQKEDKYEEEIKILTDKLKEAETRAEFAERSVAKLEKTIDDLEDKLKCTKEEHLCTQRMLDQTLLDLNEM
UniProt P09495: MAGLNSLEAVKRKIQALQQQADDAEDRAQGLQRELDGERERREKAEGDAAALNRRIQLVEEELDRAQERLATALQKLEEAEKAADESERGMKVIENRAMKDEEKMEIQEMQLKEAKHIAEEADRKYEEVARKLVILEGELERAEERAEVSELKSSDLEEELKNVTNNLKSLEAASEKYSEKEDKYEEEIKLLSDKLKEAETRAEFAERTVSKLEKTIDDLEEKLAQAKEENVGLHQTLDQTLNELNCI

How the values were obtained:
[1] = target: T1, GST-fused Tmod3-WT (tropomodulin 3, wild type) (mouse) (UniProt Q9JHJ0); assay: pull-down; GST-Tmod3-WT on glutathione beads, rocked with HEK293T cell lysate (2 mg protein) expressing Myc-AMPK-WT at 4°C overnight in TNET buffer; blot with anti-Myc; only the target purified
T1 sequence: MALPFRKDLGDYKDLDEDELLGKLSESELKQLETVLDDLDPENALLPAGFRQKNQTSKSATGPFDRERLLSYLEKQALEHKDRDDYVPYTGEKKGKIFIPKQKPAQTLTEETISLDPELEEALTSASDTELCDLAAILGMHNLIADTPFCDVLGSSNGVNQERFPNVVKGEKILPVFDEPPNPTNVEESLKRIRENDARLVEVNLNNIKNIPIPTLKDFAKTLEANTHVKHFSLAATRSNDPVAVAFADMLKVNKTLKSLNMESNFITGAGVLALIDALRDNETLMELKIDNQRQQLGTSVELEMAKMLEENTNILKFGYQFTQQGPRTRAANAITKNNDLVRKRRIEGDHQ

[2] = target: T2, FLAG-Tmod3-S25A (stably expressed in L6 myoblasts) (mouse) (UniProt Q9JHJ0); assay: co-IP; L6 myoblasts stably expressing FLAG-Tmod3-WT or mutants, serum starved 2 hours, with or without 2 mM AICAR for 30 minutes; anti-FLAG M2 affinity gel; blots with antibodies against tropomyosin isoforms
T2 sequence: T1 sequence with S25A

[3] = target: T3, FLAG-Tmod3-S25D (stably expressed in L6 myoblasts) (mouse) (UniProt Q9JHJ0); assay: as above
T3 sequence: T1 sequence with S25D

[4] = target: T4, FLAG-Tmod3-WT (stably expressed in L6 myoblasts) (mouse) (UniProt Q9JHJ0); assay: as above
T4 sequence: T1 sequence

[5] = target: T5, FLAG-Tmod3-WT (expressed in HEK293T) (mouse) (UniProt Q9JHJ0); assay: co-IP; HEK293T cells co-expressing FLAG-Tmod3-WT with AMPK-CA or AMPK-DN; pull-down with anti-FLAG M2 affinity gel, immunoblot
T5 sequence: T1 sequence

Myc-AMPK-α2-WT (from UniProt Q8BRK8 1-552) (enzyme)
binding [1]: binds

Tpm3.1, the shorter form of γTm (tropomyosin) (from UniProt Q63610 1-248)
binding [2]: binds
binding [3]: binds
binding [4]: binds

Tpm4.2 (tropomyosin isoform) (from UniProt P09495 1-248)
binding [4]: no binding

Myc-AMPK-α2-DN (kinase inactive, K45R mutation) (from UniProt Q8BRK8 1-552) (enzyme)
binding [5]: no binding
